Data as given in publication PMC6503469, “The Use of Molecular Descriptors To Model Pharmaceutical Uptake by a Fish Primary Gill Cell Culture Epithelium” (Environmental Science & Technology, 2018).

Test system: fish primary gill cell culture epithelium (FIGCS)
Details: 24 h
[1] = rainbow trout (Oncorhynchus mykiss), 1 μg mL^–1, pH 7.6

Compound | Rate [1] [nmoles cm-2 hour-1] | uptake rate [1] [nmol cm^–2 h^–1] | Rate (Table S3, 1 μg mL^–1 in apical freshwater) [nmoles cm-2 hour-1]
O=C(O)Cc1ccccc1Nc1c(Cl)cccc1Cl [diclofenac, diclofenac sodium salt] | 0.02677 | 0.027 ± 0.003 | –
C#C[C@]1(O)CC[C@H]2[C@@H]3CCC4=CC(=O)CC[C@@H]4[C@H]3CC[C@@]21C [norethindrone, norethindrone-19] | 0.0244 | 0.024 ± 0.003 | –
NC(=O)N1c2ccccc2C=Cc2ccccc21 [carbamazepine] | 0.02158 | 0.022 ± 0.004 | –
CC(C)NCC(O)COc1cccc2ccccc12 (centres unmarked) [propranolol, propranolol hydrochloride] | 0.09507 | 0.095 ± 0.026 | –
CC(=O)Nc1nnc(S(N)(=O)=O)s1 [acetazolamide] | 0.125 | 0.125 ± 0.032 | –
Cc1ccc(C)c(OCCCC(C)(C)C(=O)O)c1 [gemfibrozil] | 0.07986 | 0.075 ± 0.007 | –
CC(C)Cc1ccc(C(C)C(=O)O)cc1 (centres unmarked) [ibuprofen, ibuprofen sodium salt] | – | 0.072 ± 0.013 | 0.07183

Where a name gives a salt, the structure may show the parent alone. Read-outs that look alike come from different tables or passages of the source.
